Publication PMC6863780, “Beyond a Ribosomal RNA Methyltransferase, the Wider Role of MraW in DNA Methylation, Motility and Colonization in Escherichia coli O157:H7” (Frontiers in Microbiology, 2019)

Target: T1, MraW (Escherichia coli, UniProt P60391)
T1 construct: gene rsmH
Assay: colorimetric ELISA-type DNMT activity kit (EpiQuik, anti-5-methylcytosine antibody)
Type: biochemical
Conditions: 5-aza 10 μM; kit DNMT substrate

T1 sequence (P60391 whole entry, looked up): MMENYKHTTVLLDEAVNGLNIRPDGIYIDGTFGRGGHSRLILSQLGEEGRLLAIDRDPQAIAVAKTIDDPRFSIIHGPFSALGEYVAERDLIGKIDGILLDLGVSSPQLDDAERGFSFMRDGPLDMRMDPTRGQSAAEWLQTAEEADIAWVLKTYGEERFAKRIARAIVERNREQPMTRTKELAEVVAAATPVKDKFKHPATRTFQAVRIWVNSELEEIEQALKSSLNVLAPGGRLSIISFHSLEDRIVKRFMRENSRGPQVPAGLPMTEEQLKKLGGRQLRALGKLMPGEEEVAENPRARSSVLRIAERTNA

Nc1ncn([C@H]2C[C@H](O)[C@@H](CO)O2)c(=O)n1 [5-aza-2′-deoxycytidine]
DNMT activity (repressed by 5-aza): The DNMT activity of MraW was repressed by 5-aza (Figure 3C).
